Hit rate of the full screen: of about 44,000 compounds, about 340 (0.77%) were called active. Roughly 5% stayed inconclusive and do not appear here. Calls follow the shape of the dose curve; as a rule, active = well fitted inhibition curve with a large enough effect; inconclusive = small, poorly fitted or top-dose-only effect; inactive = flat fitted curve, though single readings scatter. This is one part of the list.
Experiment: Acumen qHTS Assay for Inhibitors of the mTORC1 Signaling Pathway in MEF (Tsc2-/-, p53-/-) Cells: Sytravon; also: nearly all actives have a fitted effect of over 50% in size
Conditions: phospho-rpS6 immunofluorescence/PI, 24 h; series mostly up to 38.3 µM; activity change, negative = inhibition: at the top concentration
Procedure, shortened: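 Readout is phospho-S6 Alexa 488 signal normalized to PI per well, reported as % active cells with thresholds set from rapamycin (7.5 nM) and DMSO controls. Cells: Tsc2-/-, p53-/- MEFs, 24 hrs compound at 37 C; PI cell number serves as viability.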

Activity change, negative = inhibition, inactive:
CCOC(=O)c1cc(-c2ccccc2)n(CCC(=O)Nc2ccc(C)cc2Cl)c1C -0.438%
COc1ccc(OC)c(S(=O)(=O)N2Cc3ccccc3CC2C(=O)Nc2ccc(Cl)cc2)c1 (centres undefined) -20.5%
CCOc1ccc(-c2nn(-c3ccccc3)cc2C2NC(=O)NC(C)=C2C(=O)OC(C)C)cc1C (centres undefined) 6.99%
Cc1cc(C)cc(NC(=O)CCS(=O)(=O)c2ccc3nc(C)sc3c2)c1 3.69%
Cc1ccc(C(=O)N2CCC(N3CCN(Cc4ccc(F)cc4)C(=O)C3=O)CC2)cc1 -2.98%
O=C1C(c2ccc(F)cc2)N(Cc2ccccc2Cl)C(=O)CN1C1CCCCC1 (centres undefined) 1.9%
Cc1ccc(-n2nc(CO)c(C(=O)NCCCCc3ccccc3)n2)cc1 -2.57%
CCOC(=O)c1[nH]c(C)c(CCC(=O)NC(C)c2ccccc2)c1C (centres undefined) 2.69%
O=C(Nc1cc2ccc(O)cc2oc1=O)c1ccc(F)cc1 1.04%
COc1ccc(CNC(=O)c2cc3c(=O)n4cccc(C)c4nc3s2)cc1 -3.96%
Cc1c(C(=O)Nc2ccc(F)c(F)c2)oc2ccc(S(=O)(=O)N(C)C3CCCCC3)cc12 7.91%
COc1ccc(CCNC(=O)CCCCn2c(=O)c3ccccc3n(Cc3ccc(Cl)cc3)c2=O)cc1OC -0.636%
COc1cccc(CNC(=O)c2oc3ccc4c(c3c2C)C(=O)CC(C)(C)O4)c1OC -6.24%
Cc1cccc(CNC(=O)Cc2ccc(NC(=O)N3CCCCc4ccccc43)cc2)c1 2.34%
CCOc1ccc(-c2cn3c(n2)sc2cc(C(=O)NCCCN(CC)CC)ccc23)cc1 -4.14%
O=C(Nc1ccc(F)cc1)C1CCCN(c2ncnc3c2nc2n3CCCCC2)C1 (centres undefined) -9.2%
Cc1ccc(N(C)C(=O)Cn2cc(S(=O)(=O)N3CCCC3)c(S(=O)(=O)N3CCCC3)c2)cc1 -8.2%
Cc1ccc(C(=O)Nc2nc(-c3nnn(-c4cccc(Cl)c4C)c3C)ns2)cc1C 1.05%
COc1cccc(-c2nc(CS(=O)(=O)CC(=O)NCCc3ccc(OC)c(OC)c3)c(C)o2)c1 2.76%
Cn1c(=O)c2c(n3ncnc13)NC(=O)CC2c1cccc(F)c1 (centres undefined) 1.01%
COc1ccc(NS(=O)(=O)c2ccc3c(c2)CC(C)N3C(C)=O)c(OC)c1 (centres undefined) -15%
CCOC(=O)C1=C(CN2CCN(c3cccc(OC)c3)CC2)NC(=O)NC1c1ccc(OC)cc1 (centres undefined) -0.347%
C=Cc1ccc(CSc2nnc(C)n3c2cc2occc23)cc1 -3.12%
COc1ccc(NC(=O)c2oc3c(c2C)-c2nn(Cc4ccccc4Cl)cc2CC3)cc1OC 4.08%
Cc1ccc(-n2c(=O)c3c(cnn3C)n(CC(=O)Nc3c(C)cccc3C)c2=O)cc1 0.968%
Cc1ccc2c(CC(=O)N(Cc3ccc(Cl)cc3)Cc3ccco3)coc2c1 -23%
Cc1ccccc1Nc1cc(C(=O)NCCc2ccc(Cl)cc2)c2ccccc2n1 3.71%
COc1cc(C2c3c(oc4ccc(C)cc4c3=O)C(=O)N2Cc2ccccc2)ccc1O (centres undefined) -13%
Cc1oc(-c2ccc(Cl)cc2)nc1CSCC(=O)NCc1ccccc1Cl 1.01%
COc1cccc(C(=O)Nc2c(C(=O)c3ccc(F)cc3)oc3ccccc23)c1 -4.81%
COC(=O)Cc1c(C)c2ccc3c(c2oc1=O)CN(Cc1ccccc1OC)CO3 -2.89%
CCC(=O)N1CCc2cc(Br)cc(S(=O)(=O)N3CCCC(C(=O)NCc4ccc(OC)cc4)C3)c21 (centres undefined) -19.9%
CCCOc1ccc(C2c3c(-c4ccccc4O)n[nH]c3C(=O)N2CCCOCC)cc1OCC (centres undefined) -5.12%
O=C(Nc1cccc(F)c1)c1cccc2c1C(=O)N(C1CCCCC1)C2 1.3%
CCC(=O)N1CCCc2cc(S(=O)(=O)N3CCC(C(=O)Nc4ccccc4CC)CC3)ccc21 -5.86%
CC1=C(c2ccc(C)c(C)c2)S(=O)(=O)N=C1N1CCC(C(=O)Nc2cccc(F)c2)CC1 -4.88%
COc1ccccc1NC(=O)Cn1c(=O)n(-c2cccc(Cl)c2)c(=O)c2c1c1cc(C)ccc1n2C -15.5%
CN1CCc2nc3sc(C(=O)Nc4cccc(C#N)c4)c(N)c3cc2C1 -17.8%
Cc1cc(C)cc(Nc2nnc(-n3nc(C)cc3C)c3ccccc23)c1 -23.3%
CCc1ccccc1NC(=O)CSc1ncc(S(=O)(=O)c2ccccc2)c(=O)[nH]1 -0.0398%
CCN1CCN(Cc2c(O)ccc3oc(C)c(C(=O)Nc4ccc(C)cc4C)c23)CC1 7.41%
Cc1cccc(OCC(=O)Nc2ccc(Cl)c(-c3nc4ccccc4[nH]3)c2)c1 -11%
CCCOc1ccc(NC(=O)CC2C(=O)N(c3ccc(Cl)cc3)C(=O)N2CCc2ccncc2)cc1 (centres undefined) -11.9%
O=C(CC1C(=O)N(c2ccccc2)C(=O)N1Cc1ccc2c(c1)OCO2)Nc1ccccc1 (centres undefined) 0.7%
Cc1c(C)n(Cc2ccc(F)cc2)c2ccc(C(=O)Nc3ccc(Cl)cc3)cc12 -7.15%
Cc1ccc(-c2cc3c(n2-c2ccccc2F)CC(C)(C)CC3=O)cc1 -8.39%
O=C1CC(c2nnc(Cc3ccccc3Cl)o2)CN1c1ccccc1 (centres undefined) -10.1%
CCOC(=O)c1ccc(CN(Cc2ccccc2C)S(=O)(=O)c2ccc(F)c(C(=O)Nc3cccc(OC)c3)c2)cc1 1.97%
O=C(CN1C(=O)CSc2ccc(S(=O)(=O)N3CCCC3)cc21)NCc1ccc(Cl)cc1 -2.99%
COc1ccc(NC(=O)c2oc3ccccc3c2NC(=O)Cc2cccs2)cc1 -12.6%
CCOC(=O)c1cnc2ccc(C)cc2c1NCCc1ccc(OC)c(OC)c1 -7.77%
Cc1ccc(NC(=O)c2sc3nc(-c4ccc(F)cc4)ccc3c2N)cc1F -26.1%
COc1ccc(C)cc1NC(=O)N1CCN(c2cc(-c3noc(C)n3)ccc2C)CC1 -8.82%
O=C(Cn1cc(C(=O)C2CC2)c2ccccc21)Nc1ccc(Br)cc1 9.02%
COc1ccccc1N1CCN(c2ccc(-c3nc(-c4ccccc4)no3)cc2[N+](=O)[O-])CC1 -0.43%
CC(=O)c1ccc(NC(=O)CCCc2nc(-c3cccc(C)c3)no2)cc1 -1.35%
CCn1c(=O)sc2cc(NC(=O)c3cccc(OC)c3)ccc21 2.63%
COc1ccc(C2CC(=O)c3c(C)nc(N4CCN(C=O)CC4)nc3C2)c(OC)c1 (centres undefined) -2.44%
CCN1CCN(c2nnc(-n3cccc3C(=O)Nc3cccc(OC)c3)s2)CC1 11.8%
O=C(Cn1ccn(-c2ccc(F)c(F)c2)c(=O)c1=O)c1ccc(F)cc1 7.37%
CC(C)c1nn2c(=O)cc(COC(=O)CNC(=O)c3ccccc3Cl)nc2s1 1.69%
CCOc1ccc(Cn2c(CNS(=O)(=O)c3c(C)cc(C)cc3C)nc3cccnc32)cc1 1.84%
Cc1nnc(NC(=O)CSc2nccn2-c2ccc(Cl)cc2)s1 -1.26%
CCC(C)n1c(SCc2ccc(C(C)(C)C)cc2)nc2ccsc2c1=O (centres undefined) 0.691%
Cc1ccc(OCc2nc(-c3ccc(C(=O)N4CCN(c5cc(Cl)ccc5C)CC4)cc3)oc2C)cc1 -4.23%
O=S(=O)(c1ccccc1)c1nc(-c2cccs2)oc1SCc1ccccc1Cl 2.62%
CCOC(=O)CC(=O)CSc1nc2ccccc2c(=O)n1-c1ccc(C(=O)NCCOC)cc1 0.974%
COC(=O)c1ccc(C(=O)OC)c(NC(=O)N2CC3CCCN3c3ccccc32)c1 (centres undefined) -1.11%
O=C(CC1NCCNC1=O)Nc1ccccc1F (centres undefined) 4.73%
CCOC(=O)c1c(-c2ccc(C)cc2)csc1NC(=O)c1cc(=O)c2cc(Cl)ccc2o1 1.92%
CCOc1ccccc1NC(=O)CSc1nc2c([nH]c3ccccc32)c(=O)n1-c1ccccc1 -0.878%
Cc1ccc(Cl)cc1N1CCN(C(=O)c2cc3c(=O)n(C)c4ccccc4c3s2)CC1 3.21%
Cc1ccc2nc(COc3cccc(NC(=O)COc4ccccc4F)c3)cc(=O)n2c1 -14.4%
CCOC(=O)c1cc(-c2ccccc2)n(-c2cccc(C(=O)Nc3cccc(C)c3)c2)c1C -6.07%
O=C(C1CC1)N1CCc2cc(Br)cc(S(=O)(=O)N3CCN(c4cccc(Cl)c4)CC3)c21 -8.02%
O=C(Nc1ccc2nc(SCC(=O)N3CCCC3)sc2c1)c1ccc(Br)cc1 -1.28%
Cc1ccc(CSc2ccc3nnc(CCNS(=O)(=O)c4ccc(C)cc4)n3n2)cc1 -3.14%
Cc1cccc(OCC(=O)OCc2cc(=O)n3nc(-c4cccs4)sc3n2)c1 0.0017%
CCC(C)NC(=O)Cn1c(=O)n(-c2ccc(Cl)c(Cl)c2)c(=O)c2c(C)c(C(=O)N(CC)CC)sc21 (centres undefined) -2.35%
Cc1ccc(-n2ncc(C(=O)N3CCN(c4ccccn4)CC3)c2C2CCN(C(=O)OC(C)(C)C)CC2)cc1 -30%
Cc1ccc(NC(=O)c2cc(S(=O)(=O)N3CCCc4ccccc43)ccc2F)cc1F 0%
COc1ccc(Nc2c(-c3ccc(C)o3)nc3ccc(Cl)cn23)cc1 6.21%
COC(=O)c1ccccc1NC(=O)Cn1c(=O)nc(-c2ccccc2)c2cc(Cl)ccc21 0%
Cc1cccc(C)c1Nc1c(-c2cccs2)nc2ncccn12 1.59%
CCCCC(=O)Nc1cc2nn(-c3ccc(OCC)cc3)nc2cc1C -12.2%
CC(=O)c1ccc(NC(=O)c2ccc(NC(=O)CCS(=O)(=O)c3cccs3)cc2)cc1 -4.05%
Cc1cccc(Cn2cc(S(=O)(=O)c3ccc(Cl)cc3)c(=O)c3cc4c(cc32)OCO4)c1 -2.87%
Cc1ccc(OCC(=O)Nc2cc(-c3nc4ccccc4[nH]3)ccc2C)c(C)c1 -21.8%
Cn1c(=O)c2c(SCC(=O)NCC3CCCO3)nc(-c3cccc(F)c3)nc2n(C)c1=O (centres undefined) 10.3%
CS(=O)(=O)N1CCC(n2c(C(F)(F)F)nc3cccnc32)CC1 -0.342%
Cc1cccc(OCCSc2nc3ccc(NC(=O)c4cccs4)cc3s2)c1 -19.9%
CCn1c(CN2CCCCC2)nc2cc(NC(=O)c3ccccc3[N+](=O)[O-])ccc21 -9.79%
CSc1ncc(C(=O)NCc2ccc(Cl)cc2)c(C(F)(F)F)n1 -10.4%
Cc1ccc(NC(=O)c2c(C(=O)Nc3ccccc3)sc3nc(C)cc(=O)n23)c(C)c1 4.22%

From PubChem BioAssay AID493208 (National Center for Advancing Translational Sciences (NCATS), 2011)
